# This is one part of the list.
# Assays:
# Assay in all cases: glycan array binding signal (z-score within array); higher = stronger binding
# Details in all cases: glycan notation: IUPAC condensed, linker removed
# [1] = biological target: GlcNAc(a1-4)Gal(b1-4)GlcNAc(b1-3)Gal(b1-4)Glc
# Summary of the method: (§1)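 Arrays were curated from the Consortium for Functional Glycomics database, 3228 in total, and kept only where the protein sequence was available. Binding is expressed as a within-array Z-score. This score was averaged across arrays of the same protein sequence at different concentrations or buffers and across linkers, and negative values can be read as non-binding.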
# [2] = biological target: GlcNAc(a1-4)Gal(b1-4)GlcNAc(b1-3)Gal(b1-4)GlcNAc
# Summary of the method: as §1
# [3] = biological target: GlcNAc(a1-4)Gal(b1-4)GlcNAc(b1-3)Gal(b1-4)GlcNAc(b1-3)Gal(b1-4)GlcNAc
# Summary of the method: as §1
# [4] = biological target: GlcNAc(a1-4)Gal(b1-4)GlcNAc(b1-3)Gal(b1-4)[Fuc(a1-3)]GlcNAc(b1-3)Gal(b1-4)[Fuc(a1-3)]GlcNAc
# Summary of the method: as §1
# [5] = biological target: GlcNAc(a1-6)Gal(b1-4)GlcNAc
# Summary of the method: as §1
# [6] = biological target: GlcNAc(b1-2)Gal(b1-3)GalNAc
# Summary of the method: as §1
# [7] = biological target: GlcNAc(b1-2)Man(a1-3)[GlcNAc(b1-2)Man(a1-6)]Man(b1-4)GlcNAc(b1-4)GlcNAc
# Summary of the method: as §1
# [8] = biological target: GlcNAc(b1-2)Man(a1-3)[GlcNAc(b1-2)Man(a1-6)]Man(b1-4)GlcNAc(b1-4)[Fuc(a1-6)]GlcNAc
# Summary of the method: as §1
# [9] = biological target: GlcNAc(b1-2)Man(a1-3)[GlcNAc(b1-4)][GlcNAc(b1-2)Man(a1-6)]Man(b1-4)GlcNAc(b1-4)GlcNAc
# Summary of the method: as §1
# [10] = biological target: GlcNAc(b1-2)Man(a1-3)[GlcNAc(b1-4)][GlcNAc(b1-2)Man(a1-6)]Man(b1-4)GlcNAc(b1-4)[Fuc(a1-6)]GlcNAc
# Summary of the method: as §1
# [11] = biological target: GlcNAc(b1-2)[GlcNAc(b1-4)]Man(a1-3)[GlcNAc(b1-2)Man(a1-6)]Man(b1-4)GlcNAc(b1-4)GlcNAc
# Summary of the method: as §1
# [12] = biological target: GlcNAc(b1-2)[GlcNAc(b1-4)]Man(a1-3)[GlcNAc(b1-4)][GlcNAc(b1-2)Man(a1-6)]Man(b1-4)GlcNAc(b1-4)GlcNAc
# Summary of the method: as §1
# [13] = biological target: GlcNAc(b1-2)[GlcNAc(b1-4)]Man(a1-3)[GlcNAc(b1-4)][GlcNAc(b1-2)[GlcNAc(b1-6)]Man(a1-6)]Man(b1-4)GlcNAc(b1-4)GlcNAc
# Summary of the method: as §1
# [14] = biological target: GlcNAc(b1-2)[GlcNAc(b1-4)]Man(a1-3)[GlcNAc(b1-4)][GlcNAc(b1-2)[GlcNAc(b1-6)]Man(a1-6)]Man(b1-4)GlcNAc(b1-4)[Fuc(a1-6)]GlcNAc
# Summary of the method: as §1
# [15] = biological target: GlcNAc(b1-2)[GlcNAc(b1-6)]Man(a1-6)[GlcNAc(b1-2)Man(a1-3)]Man(b1-4)GlcNAc(b1-4)GlcNAc
# Summary of the method: as §1
# [16] = biological target: GlcNAc(b1-2)[GlcNAc(b1-6)]Man(a1-6)[GlcNAc(b1-2)Man(a1-3)]Man(b1-4)GlcNAc(b1-4)[Fuc(a1-6)]GlcNAc
# Summary of the method: as §1
# [17] = biological target: GlcNAc(b1-2)[GlcNAc(b1-6)]Man(a1-6)[GlcNAc(b1-2)Man(a1-3)][GlcNAc(b1-4)]Man(b1-4)GlcNAc(b1-4)GlcNAc
# Summary of the method: as §1
# [18] = biological target: GlcNAc(b1-2)[GlcNAc(b1-6)]Man(a1-6)[GlcNAc(b1-4)][GlcNAc(b1-2)Man(a1-3)]Man(b1-4)GlcNAc(b1-4)GlcNAc
# Summary of the method: as §1
# [19] = biological target: GlcNAc(b1-3)Fuc
# Summary of the method: as §1
# [20] = biological target: GlcNAc(b1-3)Gal
# Summary of the method: as §1
# [21] = biological target: GlcNAc(b1-3)Gal(b1-3)GalNAc
# Summary of the method: as §1
# [22] = biological target: GlcNAc(b1-3)Gal(b1-4)Glc
# Summary of the method: as §1
binder,measurement,setting,value
OrysaEULS2 (Oryza sativa) (protein) MVYCRANPNYAMTARNGAVVLAPANPKDEYQHWIKDMRWSTSIKDEEGYPAFALVNKATGQAIKHSLGQSHPVRLVPYNPEVMDESVLWTESRDVGNGFRCIRMVNNIYLNFDAFHGDKYHGGVRDGTDIVLWKWCEGDNQRWKIQPYYILEQKLISEEDLNSAVDHHHHHH,glycan array binding signal (z-score),[1],-0.094
same,glycan array binding signal (z-score),[2],-0.192
same,glycan array binding signal (z-score),[3],-0.172
same,glycan array binding signal (z-score),[4],-0.118
same,glycan array binding signal (z-score),[5],-0.205
same,glycan array binding signal (z-score),[6],-0.206
same,glycan array binding signal (z-score),[7],3.13
same,glycan array binding signal (z-score),[8],0.299
same,glycan array binding signal (z-score),[9],-0.143
same,glycan array binding signal (z-score),[10],-0.219
same,glycan array binding signal (z-score),[11],-0.179
same,glycan array binding signal (z-score),[12],-0.178
same,glycan array binding signal (z-score),[13],-0.18
same,glycan array binding signal (z-score),[14],-0.197
same,glycan array binding signal (z-score),[15],1.24
same,glycan array binding signal (z-score),[16],0.532
same,glycan array binding signal (z-score),[17],-0.172
same,glycan array binding signal (z-score),[18],-0.086
same,glycan array binding signal (z-score),[19],-0.265
same,glycan array binding signal (z-score),[20],-0.206
same,glycan array binding signal (z-score),[21],-0.209
same,glycan array binding signal (z-score),[22],-0.18

# Source: the supplement of paper PMC8728848
